Data from paper PMC6919601, “Identification of Plasmodium dipeptidyl aminopeptidase allosteric inhibitors by high throughput screening” (PLoS ONE, 2019).
Values joined by “and” are separate entries in the source; they are usually repeats but may differ in a detail not shown here. Equal values may be shown once. The whole screen tested about 110,000 compounds, of which about 230 (0.21%) showed an effect of 50% or more. The list shows a part of the results.

Each compound was assayed against DPAP1 (Plasmodium falciparum, UniProt Q8IIJ9) (assay: primary screen, percent inhibition; read by cleavage of a fluorogenic dipeptide substrate; higher = more effect of the substance).
Set-up: species or system P. falciparum D10 trophozoite lysates; single well
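Further: 30 min substrate incubation versus DMSO and 10 µM JCP410 controls.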

Sequence of DPAP1 (Q8IIJ9 whole entry, looked up): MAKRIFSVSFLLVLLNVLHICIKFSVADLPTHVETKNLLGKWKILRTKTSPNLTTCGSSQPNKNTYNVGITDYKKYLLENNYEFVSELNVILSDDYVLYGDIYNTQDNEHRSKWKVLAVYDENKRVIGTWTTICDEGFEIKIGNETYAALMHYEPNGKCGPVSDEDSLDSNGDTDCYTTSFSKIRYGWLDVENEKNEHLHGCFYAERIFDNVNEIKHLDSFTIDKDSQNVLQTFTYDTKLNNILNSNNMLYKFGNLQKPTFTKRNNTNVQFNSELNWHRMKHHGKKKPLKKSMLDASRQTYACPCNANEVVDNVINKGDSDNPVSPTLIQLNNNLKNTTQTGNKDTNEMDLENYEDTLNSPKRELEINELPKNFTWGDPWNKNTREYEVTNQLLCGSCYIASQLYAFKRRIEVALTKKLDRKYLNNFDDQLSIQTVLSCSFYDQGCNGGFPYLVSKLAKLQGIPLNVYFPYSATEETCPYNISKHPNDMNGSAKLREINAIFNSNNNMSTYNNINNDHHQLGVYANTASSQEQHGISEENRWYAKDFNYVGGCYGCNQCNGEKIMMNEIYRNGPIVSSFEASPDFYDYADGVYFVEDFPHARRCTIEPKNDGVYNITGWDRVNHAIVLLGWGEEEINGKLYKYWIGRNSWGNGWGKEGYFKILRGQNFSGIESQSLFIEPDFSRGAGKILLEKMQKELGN

Row | SMILES | % Inhibition @ 10 uM
1 | CCOc1ccc2nc(N3CCC(C(=O)N4CCN(Cc5ccccc5)CC4)CC3)sc2c1 | -1.58%
2 | Cc1cccc(-c2cc(C(=O)NCc3cccnc3)c3ccccc3n2)c1 | 1.67%
3 | COc1ccccc1OCc1ccoc1C(=O)O | -9.32%
4 | CCOC(=O)c1conc1-c1ccc(F)cc1 | -5.94%
5 | COc1ccc(CCNC(=O)Cn2cnc3c2c(=O)n(C)c(=O)n3C)cc1OC | 1.58%
6 | Cc1cc(C)c2nc(N3CCC(C(=O)NCC4CCCO4)CC3)sc2c1 (centres unmarked) | 0.137%
7 | CCOC(=O)N1CCN(C(=O)c2ccc(CS(=O)c3cccc(Cl)c3)o2)CC1 (centres unmarked) | -1.57%
8 | COc1ccc(-n2nc3c(N4CCC(C(=O)NCc5ccc(C)o5)CC4)nnc(C)c3c2C)cc1 | 11.7%
9 | Cn1c(C(O)C(O)c2ccccc2)nc2ccccc21 (centres unmarked) | -1.76%
10 | O=C(c1ccc(Cl)cc1)N1CCN(c2ccc(Cl)cc2)CC1 | -3.97%
11 | CCCN(CCO)Cc1ccc2c(c1)c1ccccc1n2CC | -6%
12 | O=C1CCCc2oc3ccc(NS(=O)(=O)c4ccc5c6c(cccc46)C(=O)N5)cc3c21 | 3.24% and -3.19%
13 | CC(C)NCC(O)COCCC12CC3CC(CC(C3)C1)C2 (centres unmarked) | -5.78%
14 | CC(NC(=O)c1ccco1)c1ccccc1 (centres unmarked) | -3.03%
15 | Cc1nn(CCCC(=O)NC2CCCC(C)C2C)c(=O)c2nccn12 (centres unmarked) | 6.31%
16 | O=C(Nc1ccc(I)cc1)[C@@H]1C2C=CC(C2)[C@@H]1C(=O)O (some centres unmarked) | 0.716%
17 | CCOc1ccc(C(=O)N(Cc2ccccc2Cl)C2CCS(=O)(=O)C2)cc1 (centres unmarked) | 3.72%
18 | CCOC(=O)c1c(NC(=O)c2ccccc2)sc2c1CCCC2=O | 2.94%
19 | COc1ccc(CCNC(=O)CNS(=O)(=O)c2ccc(Cl)cc2)cc1 | -4.62%
20 | Cc1cc(NCCCCO)n2c(nc3ccccc32)c1C#N | 23.7%
21 | O=C(NCc1ccccc1)c1ccc(-c2ccccc2)cc1 | 3.82%
22 | CCOC(=O)CCc1n[nH]c(=O)[nH]c1=O | 4.15%

Row | SMILES | % Inhibition @ 10 uM
23 | CC(=O)c1cc(-c2ccc(F)cc2)n(CCC(=O)N2CC(C)CC(C)C2)c1C (centres unmarked) | -3.87%
24 | COc1cccc(-c2csc(NC(=O)c3ccc(Cl)cc3)n2)c1 | 4.44%
25 | O=C(NCCCn1ccnc1)c1cc(-c2cccc(Br)c2)nc2ccccc12 | -4.76%
26 | O=C1NC(=S)S/C1=C\c1ccc(-c2ccc(Cl)c(Cl)c2)o1 | 5.61%
27 | COc1ccc(Cl)cc1NC(=O)c1sc2nc(-c3ccncc3)ccc2c1N | -2.8%
28 | Cc1nc2ccc(F)cc2c2c1CCN2c1ccccc1 | -4.76%
29 | Cc1cc(C(=O)Nc2sc(C)c(-c3ccc(F)cc3)c2C(N)=O)no1 | -1.07%
30 | CCOCCCNCc1ccc(Cl)cc1 | 0.387%
31 | Cc1ccc(C2C3=C(O)CC(C)(C)CC3=NC3=C2C(=O)CC(C)(C)C3)cc1 (centres unmarked) | -2.8%
32 | CC(=O)c1ccc(NC(=O)Cn2nc(C)cc2C)cc1 | 2.17%
33 | COc1ccc(OC)c(C2c3cc(OC)c(OC)cc3CCN2C(C)=O)c1 (centres unmarked) | -0.693%
34 | C=CCSc1nc(=O)c2c(n1C)NC(=O)CC2c1ccccc1OC(C)C (centres unmarked) | 2.25%
35 | COCCCN1C(=O)C(O)=C(C(=O)c2ccc(C)cc2)C1c1cccc(OC)c1 (centres unmarked) | -6.2%
36 | O=C(CC(c1ccccc1)c1ccccc1)N1CCN(Cc2ccc3c(c2)OCO3)CC1 | -4.03% and 3.56%
37 | CCOc1cc(C2C(C#N)=C(N)Oc3[nH]nc(CC)c32)ccc1OC(F)F (centres unmarked) | 0.851%
38 | CC(C)c1ccc(CN2CCCC(CO)C2)cc1 (centres unmarked) | 1.04%
39 | COc1ccccc1CNC(=O)CCCNC(=O)Cn1cnc2sc3c(c2c1=O)CCCC3 | 0.231%
40 | O=C(Nc1ccc2c(c1)OCCO2)c1ccc(OC(F)F)cc1 | -2.85%
41 | CCOC(=O)C1=C(CNCCc2ccccc2)NC(=O)NC1c1ccc(C)cc1 (centres unmarked) | 2.39%
42 | CCC(=O)NS(=O)(=O)c1cccnc1Nc1ccc(Cl)c(C(F)(F)F)c1 | 6.98%
43 | O=C(CN(c1ccccc1)S(=O)(=O)c1ccccc1)N1CCOCC1 | -2.77%
44 | CC(C)N1CCC2(CC1)N=C(c1ccccc1)C(=S)N2 | 5.46%

Row | SMILES | % Inhibition @ 10 uM
45 | O=C1CC(c2ccccc2Cl)c2cc3c(cc2N1)OCO3 (centres unmarked) | -5.27%
46 | O=C(CN1C(=O)S/C(=C/c2cccc3ccccc23)C1=O)N1CCCC1 | -1.27%
47 | COC(=O)c1ccc(NC(=O)/C=C/c2ccccc2)cc1 | -5.51%
48 | COc1ccc(C2CC(=O)C(C)C(c3ccc(OC)cc3)N2)cc1 (centres unmarked) | 5.16%
49 | O=C(NCC1CCCO1)c1ccc(CS(=O)(=O)c2cccc(C(F)(F)F)c2)o1 (centres unmarked) | -7.14%
50 | CSc1nc2c(c(=O)n1CC1CCCC1)C1(CCCCC1)Cc1ccccc1-2 | -3.77%
51 | CC(C)c1nnc2sc(NC(=O)C3CCCCC3)nn12 | -2.17%
52 | CCOc1ccc2c(C(F)(F)F)cc(=O)oc2c1 | -2.21%
53 | Cc1c(C(=O)N2CCCC2)oc2c1-c1nn(CC(=O)N3CCc4ccccc4C3)cc1CC2 | -4.37%
54 | O=C(NC12C[C@H]3C[C@@H](C1)C[C@@H](C2)C3)N1CCN(C2CCCCC2)CC1 | -0.551%
55 | Cc1cccc(C)c1NC(=O)c1sc(Cl)nc1C | 4.31%
56 | CCOc1ccc(CN2CCN(c3ccc(OC)cc3)CC2)cc1 | 2.9%
57 | CCCCNC(=O)c1cnn2c(C(F)F)cc(-c3ccc(C)cc3)nc12 | -4.35%
58 | COc1ccc(NC(=O)c2ccc(OC)cc2)cc1 | 0.035%
59 | CCOc1ccc2oc(=O)cc(CN3CCN(C(=O)c4ccco4)CC3)c2c1 | -7.24%
60 | CN(C)CCOC(c1ccccc1)C1CC=CCC1 (centres unmarked) | -1.6%
61 | COc1ccc(CN2CCN(C(=O)CC(C)C)CC2)cc1OC | 0.214% and -3.19%
62 | Cc1sc2ncnc(NCCc3ccccc3)c2c1C | -1.68%
63 | CCN(CCNS(=O)(=O)c1csc(C(N)=O)c1)Cc1ccccc1 | -1.59%
64 | O=C1N=C(N2CCCC2)S/C1=C\c1ccccc1O | 5.3%
65 | COCCNC(=O)CSc1[nH]c(-c2ccc(OC)c(OC)c2)nc1-c1ccc(F)cc1 | 1.85%
